# From the supplement of paper PMC8728848
# This is one part of the list.
# Key:
# Assay in all cases: glycan array binding signal (z-score within array); higher = stronger binding
# Conditions in all cases: glycan notation: IUPAC condensed, linker removed
# [1] = target: Fuc(a1-2)Gal(b1-4)[Fuc(a1-3)]GlcNAc(b1-2)Man(a1-3)[Fuc(a1-2)Gal(b1-4)[Fuc(a1-3)]GlcNAc(b1-2)Man(a1-6)]Man(b1-4)GlcNAc(b1-4)[Fuc(a1-6)]GlcNAc
# How it was run: (§1)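 The binding signal is a Z-score computed within each array. Data were drawn from 3228 arrays in the Consortium for Functional Glycomics database, restricted to those with a known protein sequence. Scores were averaged over arrays of the same protein sequence at different concentrations or buffers, and over linkers, and negative values can be taken as non-binding.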
# [2] = target: Fuc(a1-2)Gal(b1-4)[Fuc(a1-3)]GlcNAc(b1-2)[Fuc(a1-2)Gal(b1-4)[Fuc(a1-3)]GlcNAc(b1-4)]Man(a1-3)[Fuc(a1-2)Gal(b1-4)[Fuc(a1-3)]GlcNAc(b1-2)Man(a1-6)]Man(b1-4)GlcNAc(b1-4)GlcNAc
# How it was run: as §1
# [3] = target: Fuc(a1-2)Gal(b1-4)[Fuc(a1-3)]GlcNAc(b1-3)Gal(b1-4)[Fuc(a1-3)]GlcNAc
# How it was run: as §1
# [4] = target: Fuc(a1-2)Gal(b1-4)[Fuc(a1-3)]GlcNAc(b1-3)Gal(b1-4)[Fuc(a1-3)]GlcNAc(b1-3)Gal(b1-4)[Fuc(a1-3)]GlcNAc
# How it was run: as §1
# [5] = target: Fuc(a1-2)Gal(b1-4)[Fuc(a1-3)]GlcNAc(b1-3)GalNAc
# How it was run: as §1
# [6] = target: Fuc(a1-2)Gal(b1-4)[Fuc(a1-3)]GlcNAc(b1-3)[Neu5Ac(a2-6)Gal(b1-4)GlcNAc(b1-6)]Gal(b1-4)Glc
# How it was run: as §1
# [7] = target: Fuc(a1-2)Gal3S(b1-4)GlcNAc
# How it was run: as §1
# [8] = target: Fuc(a1-2)Gal6S(b1-3)GlcNAc
# How it was run: as §1
# [9] = target: Fuc(a1-2)Gal6S(b1-3)GlcNAc6S
# How it was run: as §1
# Fuc(a1-2)Gal6S(b1-4)Glc = target: Fuc(a1-2)Gal6S(b1-4)Glc
# How it was run: as §1
# [10] = target: Fuc(a1-2)Gal6S(b1-4)Glc6S
# How it was run: as §1
# Fuc(a1-2)[Gal(a1-3)]Gal = target: Fuc(a1-2)[Gal(a1-3)]Gal
# How it was run: as §1
# [11] = target: Fuc(a1-2)[Gal(a1-3)]Gal(b1-3)GalNAc
# How it was run: as §1
# [12] = target: Fuc(a1-2)[Gal(a1-3)]Gal(b1-3)GalNAc(b1-3)Gal(a1-4)Gal(b1-4)Glc
# How it was run: as §1
# [13] = target: Fuc(a1-2)[Gal(a1-3)]Gal(b1-3)GlcNAc
# How it was run: as §1
# [14] = target: Fuc(a1-2)[Gal(a1-3)]Gal(b1-3)GlcNAc(b1-2)Man(a1-3)[Fuc(a1-2)[Gal(a1-3)]Gal(b1-3)GlcNAc(b1-2)Man(a1-6)]Man(b1-4)GlcNAc(b1-4)GlcNAc
# How it was run: as §1
# [15] = target: Fuc(a1-2)[Gal(a1-3)]Gal(b1-3)GlcNAc(b1-2)Man(a1-3)[Fuc(a1-2)[Gal(a1-3)]Gal(b1-3)GlcNAc(b1-2)Man(a1-6)]Man(b1-4)GlcNAc(b1-4)[Fuc(a1-6)]GlcNAc
# How it was run: as §1
# [16] = target: Fuc(a1-2)[Gal(a1-3)]Gal(b1-3)GlcNAc(b1-3)GalNAc
# How it was run: as §1
# [17] = target: Fuc(a1-2)[Gal(a1-3)]Gal(b1-3)GlcNAc(b1-6)GalNAc
# How it was run: as §1
# [18] = target: Fuc(a1-2)[Gal(a1-3)]Gal(b1-4)Glc
# How it was run: as §1
# [19] = target: Fuc(a1-2)[Gal(a1-3)]Gal(b1-4)GlcNAc
# How it was run: as §1
# [20] = target: Fuc(a1-2)[Gal(a1-3)]Gal(b1-4)GlcNAc(b1-2)Man
# How it was run: as §1
# [21] = target: Fuc(a1-2)[Gal(a1-3)]Gal(b1-4)GlcNAc(b1-2)Man(a1-3)[Fuc(a1-2)[Gal(a1-3)]Gal(b1-4)GlcNAc(b1-2)Man(a1-6)]Man(b1-4)GlcNAc(b1-4)GlcNAc
# How it was run: as §1
# [22] = target: Fuc(a1-2)[Gal(a1-3)]Gal(b1-4)GlcNAc(b1-2)Man(a1-3)[Fuc(a1-2)[Gal(a1-3)]Gal(b1-4)GlcNAc(b1-2)Man(a1-6)]Man(b1-4)GlcNAc(b1-4)[Fuc(a1-6)]GlcNAc
# How it was run: as §1
# [23] = target: Fuc(a1-2)[Gal(a1-3)]Gal(b1-4)GlcNAc(b1-3)GalNAc
# How it was run: as §1
# [24] = target: Fuc(a1-2)[Gal(a1-3)]Gal(b1-4)GlcNAc(b1-3)[Fuc(a1-2)[Gal(a1-3)]Gal(b1-4)GlcNAc(b1-6)]GalNAc
# How it was run: as §1
# [25] = target: Fuc(a1-2)[Gal(a1-3)]Gal(b1-4)GlcNAc(b1-6)GalNAc
# How it was run: as §1
# [26] = target: Fuc(a1-2)[Gal(a1-3)]Gal(b1-4)[Fuc(a1-3)]Glc
# How it was run: as §1
# [27] = target: Fuc(a1-2)[Gal(a1-3)]Gal(b1-4)[Fuc(a1-3)]GlcNAc
# How it was run: as §1
# [28] = target: Fuc(a1-2)[Gal(a1-3)]Gal(b1-4)[Fuc(a1-3)]GlcNAc(b1-3)GalNAc
# How it was run: as §1
# [29] = target: Fuc(a1-2)[Gal(a1-4)]Gal(b1-4)GlcNAc
# How it was run: as §1
# [30] = target: Fuc(a1-2)[GalNAc(a1-3)]Gal
# How it was run: as §1
# [31] = target: Fuc(a1-2)[GalNAc(a1-3)]Gal(b1-3)GalNAc(a1-3)[Fuc(a1-2)]Gal(b1-4)GlcNAc
# How it was run: as §1
# [32] = target: Fuc(a1-2)[GalNAc(a1-3)]Gal(b1-3)GalNAc(b1-3)Gal(a1-4)Gal(b1-4)Glc
# How it was run: as §1
# [33] = target: Fuc(a1-2)[GalNAc(a1-3)]Gal(b1-3)GlcNAc
# How it was run: as §1
# [34] = target: Fuc(a1-2)[GalNAc(a1-3)]Gal(b1-3)GlcNAc(b1-2)Man(a1-3)[Fuc(a1-2)[GalNAc(a1-3)]Gal(b1-3)GlcNAc(b1-2)Man(a1-6)]Man(b1-4)GlcNAc(b1-4)GlcNAc
# How it was run: as §1
# [35] = target: Fuc(a1-2)[GalNAc(a1-3)]Gal(b1-3)GlcNAc(b1-2)Man(a1-3)[Fuc(a1-2)[GalNAc(a1-3)]Gal(b1-3)GlcNAc(b1-2)Man(a1-6)]Man(b1-4)GlcNAc(b1-4)[Fuc(a1-6)]GlcNAc
# How it was run: as §1
# [36] = target: Fuc(a1-2)[GalNAc(a1-3)]Gal(b1-3)GlcNAc(b1-3)GalNAc
# How it was run: as §1
binder,measurement,setting,value
PX15618A-bth-503-24-503 (Bacteroides thetaiotaomicron) (protein) NKSEDKLSGDDFWAQGNETNAEAFLLSIYNSFRNATMSQRPFLTYSGDMRCAPITAYSTGDKYVAYLANNDMGELRNTYPDDARGGLIMQWDVFYTAIQDANILLAEIDKVPGMDELKRSRFKAEAIFMRSLSYFFIVRAFGDVPYYTNAYNEAPLPRTNMVIVLQNCLADLQPLLDDDPGAEVLPWSYSSYSSKGIRASRGSVIALMMHINLWLVQFDAQNKEQYYRNVVSLGEELERNNGAYSLLDINRSSVIFAGGSDEGLFEIAQNINFNEIFMMNAKFSDNVSYSCLNKSMPLFCYSGDYLMTLFPMYEDDARKELWFDEKIYSTSVSSSAPKEIKKFWNIDTYGNGTITSNSGNQIVFRYAGALLLYAEALAALGTNDTKACELLNRVRNRAHASEINTSGSELMDAIFWERCRELIGEGHYYYDLVRTGKVYNRNYCMNPMTRTNFNVGAWTWPIHRNALKNNTQIGLNLFWE,glycan array binding signal (z-score),[1],0.352
same,glycan array binding signal (z-score),[2],0.007
same,glycan array binding signal (z-score),[3],0.413
same,glycan array binding signal (z-score),[4],0.015
same,glycan array binding signal (z-score),[5],-0.411
same,glycan array binding signal (z-score),[6],-0.1
same,glycan array binding signal (z-score),[7],-0.301
same,glycan array binding signal (z-score),[8],0.13
same,glycan array binding signal (z-score),[9],-0.016
same,glycan array binding signal (z-score),Fuc(a1-2)Gal6S(b1-4)Glc,2.77
same,glycan array binding signal (z-score),[10],0.888
same,glycan array binding signal (z-score),Fuc(a1-2)[Gal(a1-3)]Gal,0.989
same,glycan array binding signal (z-score),[11],-0.377
same,glycan array binding signal (z-score),[12],0.64
same,glycan array binding signal (z-score),[13],0.041
same,glycan array binding signal (z-score),[14],-0.62
same,glycan array binding signal (z-score),[15],0.553
same,glycan array binding signal (z-score),[16],-0.259
same,glycan array binding signal (z-score),[17],0.076
same,glycan array binding signal (z-score),[18],-0.584
same,glycan array binding signal (z-score),[19],-0.343
same,glycan array binding signal (z-score),[20],0.353
same,glycan array binding signal (z-score),[21],0.482
same,glycan array binding signal (z-score),[22],-0.198
same,glycan array binding signal (z-score),[23],-0.58
same,glycan array binding signal (z-score),[24],-0.151
same,glycan array binding signal (z-score),[25],0.235
same,glycan array binding signal (z-score),[26],-0.33
same,glycan array binding signal (z-score),[27],-0.363
same,glycan array binding signal (z-score),[28],-0.391
same,glycan array binding signal (z-score),[29],0.318
same,glycan array binding signal (z-score),[30],-0.153
same,glycan array binding signal (z-score),[31],-0.7
same,glycan array binding signal (z-score),[32],-0.307
same,glycan array binding signal (z-score),[33],-0.665
same,glycan array binding signal (z-score),[34],0.004
same,glycan array binding signal (z-score),[35],-0.46
same,glycan array binding signal (z-score),[36],-0.001
